Measured values taken from US11420968B2 (priority 2018, dated 2022).
Where two headings read alike, the source gives them in different places.

How the values were obtained:
RS4;11 cells = assay: cells; settings: Homo sapiens
Molt-4 cells = assay: cells; settings: Homo sapiens
[1] = RS4-11, 48 h, read-out: Cellular activity (IC50, nM) RS4;11
[2] = RS4-11, read-out: Celluclar activity (IC50, nM) RS 4, 11
[3] = MOLT-4, read-out: Celluclar activity (IC50, nM) Molt-4
[4] = MOLT-4, read-out: Cellular activity (IC50, nM) Molt-4

SMILES: CC(C)N1CCN(C2CC3(CCN(c4ccc(C(=O)NS(=O)(=O)c5ccc(NCC6CCOCC6)c([N+](=O)[O-])c5)c(Oc5cnc6[nH]ccc6c5)c4)CC3)C2)C(c2ccccc2C2CC2)C1 (stereo not drawn) [Example F92, 2-((1H-pyrrolo[2,3-b]pyridin-5-yl)oxy)-4-(2-(2-(2-cyclopropylphenyl)-4-isopropylpiperazin-1-yl)-7-azaspiro[3.5]nonan-7-yl)-N-((3-nitro-4-(((tetrahydro-2H-pyran-4-yl)methyl)amino)phenyl)sulfonyl)benzamide]
- IC50 (RS4;11 cells; [1]): 1.2 nM
- IC50 (RS4;11 cells; [2]): 1.2 nM
- IC50 (Molt-4 cells; [3]): 1370 nM
- IC50 (Molt-4 cells; [4]): 1370 nM

SMILES: O=C(NS(=O)(=O)c1ccc(NCC2CCOCC2)c([N+](=O)[O-])c1)c1ccc(N2CCC3(CC2)CC(c2ccccc2-c2ccccc2C2CC2)C3)cc1Oc1cnc2[nH]ccc2c1 [Example F93, 2-((1H-pyrrolo[2,3-b]pyridin-5-yl)oxy)-4-(2-(2′-cyclopropyl-[1,1′-biphenyl]-2-yl)-7-azaspiro[3.5]nonan-7-yl)-N-((3-nitro-4-(((tetrahydro-2H-pyran-4-yl)methyl)amino)phenyl)sulfonyl)benzamide]
- IC50 (RS4;11 cells; [1]): 900 nM
- IC50 (Molt-4 cells; [4]): > 10000 nM

SMILES: Cc1ccccc1C1CCCCCN1C1CC2(CCN(c3ccc(C(=O)NS(=O)(=O)c4ccc(NCC5CCOCC5)c([N+](=O)[O-])c4)c(Oc4cnc5[nH]ccc5c4)c3)CC2)C1 (stereo not drawn) [Example F94, 2-((1H-pyrrolo[2,3-b]pyridin-5-yl)oxy)-N-((3-nitro-4-(((tetrahydro-2H-pyran-4-yl)methyl)amino)phenyl)sulfonyl)-4-(2-(2-(o-tolyl)azepan-1-yl)-7-azaspiro[3.5]nonan-7-yl)benzamide]
- IC50 (RS4;11 cells; [1]): 32 nM
- IC50 (Molt-4 cells; [4]): > 10000 nM

SMILES: O=C(NS(=O)(=O)c1ccc(NCC2CCOCC2)c([N+](=O)[O-])c1)c1ccc(N2CCC3(CC2)CC(N2CCCCCC2c2ccccc2C2CC2)C3)cc1Oc1cnc2[nH]ccc2c1 (stereo not drawn) [Example F95, 2-((1H-pyrrolo[2,3-b]pyridin-5-yl)oxy)-4-(2-(2-(2-cyclopropylphenyl)azepan-1-yl)-7-azaspiro[3.5]nonan-7-yl)-N-((3-nitro-4-(((tetrahydro-2H-pyran-4-yl)methyl)amino)phenyl)sulfonyl)benzamide]
- IC50 (RS4;11 cells; [1]): 7.8 nM
- IC50 (Molt-4 cells; [4]): 4170 nM

SMILES: O=C(NS(=O)(=O)c1ccc(NCC2CCC(O)(C(F)(F)F)CC2)c([N+](=O)[O-])c1)c1ccc(N2CCC3(CC2)CC(N2CCC[C@H]2c2ccccc2C2CC2)C3)cc1Oc1cnc2[nH]ccc2c1 (stereo partly drawn) [Example F100, (S)-2-((1H-pyrrolo[2,3-b]pyridin-5-yl)oxy)-4-(2-(2-(2-cyclopropylphenyl)pyrrolidin-1-yl)-7-azaspiro[3.5]nonan-7-yl)-N-((4-(((4-hydroxy-4-(trifluoromethyl)cyclohexyl)methyl)amino)-3-nitrophenyl)sulfonyl)benzamide]
- IC50 (RS4;11 cells; [1]): 6.4 nM
- IC50 (Molt-4 cells; [4]): 7030 nM

SMILES: CC1=CC[C@@H](CNc2ccc(S(=O)(=O)NC(=O)c3ccc(N4CCC5(CC4)CC(N4CCC[C@H]4c4ccccc4C(C)C)C5)cc3Oc3cnc4[nH]ccc4c3)cc2[N+](=O)[O-])CC1 [Example F103, 2-((1H-pyrrolo[2,3-b]pyridin-5-yl)oxy)-4-(2-((S)-2-(2-isopropylphenyl)pyrrolidin-1-yl)-7-azaspiro[3.5]nonan-7-yl)-N-((4-((((S)-4-methylcyclohex-3-en-1-yl)methyl)amino)-3-nitrophenyl)sulfonyl)benzamide]
- IC50 (RS4;11 cells; [1]): 8.9 nM
- IC50 (Molt-4 cells; [4]): > 10000 nM

SMILES: C=C(C)c1ccccc1[C@@H]1CCCN1C1CC2(CCN(c3ccc(C(=O)NS(=O)(=O)c4ccc(NC[C@H]5CC[C@](C)(O)CC5)c([N+](=O)[O-])c4)c(Oc4cnc5[nH]ccc5c4)c3)CC2)C1 [Example F104, 2-((1H-pyrrolo[2,3-b]pyridin-5-yl)oxy)-N-((4-((((1r,4r)-4-hydroxy-4-methylcyclohexyl)methyl)amino)-3-nitrophenyl)sulfonyl)-4-(2-((S)-2-(2-(prop-1-en-2-yl)phenyl)pyrrolidin-1-yl)-7-azaspiro[3.5]nonan-7-yl)benzamide]
- IC50 (RS4;11 cells; [1]): 0.4 nM
- IC50 (RS4;11 cells; [2]): 0.4 nM
- IC50 (Molt-4 cells; [3]): 1490 nM
- IC50 (Molt-4 cells; [4]): 1490 nM
